Experimental data from the supplement of paper PMC3334620.
Over roughly 33,000 sequences, “E-score (-0.5 to 0.5)” has its median near -0.016; the highest 2% begin near 0.31. This is one part of the list.

molecular target: Cst6 (UniProt P40535); assay: PBM E-score (8-mer binding enrichment) (E-score (-0.5 to 0.5)); higher = stronger / more preferred TF binding; most listed sequences are background and not binding sites; settings: protein concentration: 200 nM; construct: GST-DNA-binding domain
Procedure: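 Universal 'all 10-mer' protein binding microarrays (Agilent AMADID 015681) probed with GST-tagged S. cerevisiae TFs (full-length or DBD) made by in vitro transcription/translation (PURExpress), about 100-200 nM. Bound TF was detected with fluorescent anti-GST. Each ungapped 8-mer (which stands for itself and its reverse complement) is scored by the PBM enrichment score (E-score), a modified Wilcoxon-Mann-Whitney statistic from -0.5 to +0.5, computed with the Universal PBM Analysis Suite. Scale: above 0.35 generally sequence-specific binding.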

| Sequence | PBM E-score |
| --- | --- |
| ATGCACTC | -0.133 |
| ACAGATAG | 0.00637 |
| CTCCAAGA | -0.127 |
| CTGGAGTC | -0.274 |
| CTACCGAA | -0.0902 |
| CGCCTAAC | 0.0659 |
| CAACAATA | 0.214 |
| ACCCCCCT | -0.435 |
| TACTGTCA | 0.111 |
| AGGATTCA | 0.048 |
| AACGAGTG | 0.0104 |
| TAACAGGA | 0.148 |
| ATACTCCG | 0.00929 |
| GCCGATAC | -0.136 |
| CGAAATGC | 0.0485 |
| CACGCATC | 0.0172 |
| GCTAGTGA | 0.183 |
| CCGGTTAG | -0.095 |
| CGGCGCAG | 0.17 |
| ACCCTCAT | -0.328 |
| AGTACCAC | -0.14 |
| CGTGGGCA | -0.174 |
| CGTATCGA | 0.0611 |
| CCACTCGA | 0.0183 |
| AACATTGA | 0.139 |

| Sequence | PBM E-score |
| --- | --- |
| CGTGAGAA | 0.0747 |
| CGCGGGAC | -0.207 |
| CATGGCAC | 0.103 |
| CACTTCCG | -0.0551 |
| AGGAATGA | 0.137 |
| GTGCGACA | -0.0902 |
| AGTTAGTC | -0.119 |
| ACGCAAGT | 0.169 |
| AATTGCGC | 0.309 |
| CATGGTAA | 0.131 |
| ACGTATAC | 0.307 |
| CTTTCCAC | 0.125 |
| GGCTAGTA | 0.0949 |
| AGTTAGGA | 0.00564 |
| ACTTCCCG | -0.105 |
| ACCCTCGT | -0.0894 |
| ACGGACTC | -0.251 |
| GCAACCCC | -0.303 |
| ACTGAGAA | -0.0352 |
| ATGACGAG | 0.398 |
| ATAAATGG | 0.156 |
| CGGGATTA | 0.109 |
| ACATTTAT | 0.15 |
| GCTCTTTA | 0.0642 |
| CTCTCTGC | -0.249 |

| Sequence | PBM E-score |
| --- | --- |
| ACCCACGT | 0.0287 |
| AAACGGTA | 0.112 |
| ATCGTTGA | 0.0312 |
| AGCATTAG | -0.0629 |
| ATCGTCAA | 0.223 |
| CACCTTAG | 0.00913 |
| CTAAGAAG | 0.138 |
| CAAACCCA | -0.00988 |
| GAGCGACC | -0.224 |
| CACTCCCG | -0.0804 |
| CGGACAAG | -0.0342 |
| AGTAAATC | 0.111 |
| GGATAAGA | -0.0159 |
| AACACGCC | -0.0537 |
| GAAATGTC | -0.123 |
| AAGATTGA | 0.233 |
| GAATAGTA | 0.0771 |
| CGTATCCA | -0.111 |
| TACATTAA | 0.19 |
| AGATTTAG | 0.0908 |
| CTCTTGTC | 0.0332 |
| ATGGCCAA | -0.021 |
| GTGTAATA | 0.214 |
| GCGGGCCA | -0.284 |
| ATCAAAGG | -0.0902 |

| Sequence | PBM E-score |
| --- | --- |
| ATGAGACC | -0.11 |
| CAAGGGCA | -0.307 |
| ACGCCATC | 0.0988 |
| CCACCGAA | -0.0423 |
| ATTCATGA | 0.202 |
| AATTATCC | 0.188 |
| ACATGGTA | 0.0633 |
| CGTCTTGA | -0.0177 |
| AACAGAAA | 0.213 |
| ACGATGGC | 0.0254 |
| GTACAACA | 0.23 |
| GTACACAA | 0.0535 |
| CTATGACA | 0.264 |
| GCAGGAAC | -0.196 |
| ATACATGC | -0.0391 |
| CGCGTTCA | 0.133 |
| CATGCCGG | 0.0708 |
| CCATTATA | 0.0936 |
| ATGGTTTA | 0.0866 |
| CTCGTTGC | 0.17 |
| TACTGGGA | -0.0281 |
| TGTGTTAA | 0.173 |
| AGCGAGGG | -0.219 |
| CGAAAGAA | -0.0106 |
| AGTGCGAC | -0.108 |

| Sequence | PBM E-score |
| --- | --- |
| ACCCGAGG | -0.146 |
| ACAGAAGT | 0.134 |
| ATCGATCA | 0.104 |
| TCACCTGA | -0.0189 |
| GCCAGCCC | -0.311 |
| CCATGGAC | -0.158 |
| CCGTAAAC | 0.0456 |
| AGGCGACC | -0.0847 |
| GATCATCA | 0.163 |
| ACGCCTCT | 0.00882 |
| CGCCGATA | -0.0288 |
| ACCGAAGC | -0.16 |
| ATCGCGCG | 0.268 |
| ACGAAGGC | -0.0356 |
| CGAGCCTC | -0.223 |
| CCGCAGGA | -0.234 |
| CACTGGAA | -0.0184 |
| GACAAGCA | -0.139 |
| ATTCTTTC | 0.0948 |
| GAGCGAGA | 0.149 |
| AAGCTCGT | -0.0807 |
| ACTGGAAA | 0.108 |
| GGCCTGAC | -0.18 |
| ACATTAGG | -0.138 |
| CTTGACAA | 0.0373 |

| Sequence | PBM E-score |
| --- | --- |
| GAGGCGAA | 0.0301 |
| CGAGGGTC | -0.34 |
| ATGTGGGA | -0.164 |
| GCTGTACA | -0.197 |
| AATTTGCG | 0.0719 |
| GAACATTC | -0.053 |
| GGACGCGA | -0.156 |
| AGCTGTAT | -0.18 |
| ACCTTACC | 0.0399 |
| TAGCAACA | 0.179 |
| CCGCTAGC | -0.299 |
| CGAGTTTC | -0.0728 |
| ACGGCGTG | 0.314 |
| AGTGGTTG | 0.0902 |
| GAAGGACC | -0.26 |
| GAATAGCC | -0.203 |
| AACAGCGA | -0.204 |
| ATGAACAA | 0.225 |
| AATAGGCA | 0.148 |
| GAGGCTAC | -0.303 |
| AGTGCTTG | -0.0818 |
| CGAATGTC | 0.00819 |
| ATTTGCCG | 0.162 |
| CTCTCCTA | 0.0971 |
| AACATACG | 0.253 |

| Sequence | PBM E-score |
| --- | --- |
| AATGCCCG | -0.269 |
| AAGCACCA | -0.239 |
| ACCAATAG | -0.271 |
| CCTCTGCC | -0.258 |
| ACTCTACA | -0.0195 |
| AGCACGCT | -0.162 |
| CACTCCGA | -0.0718 |
| TCCATGCA | 0.067 |
| AAAGGTCG | -0.135 |
| CTTACGTC | 0.421 |
| TCATTAAA | 0.352 |
| TCTTAAAA | -0.00317 |
| CTTAGTAA | 0.174 |
| GTTATGGA | 0.205 |
| ACTGTAGG | 0.102 |
| ACGAAGGA | 0.0355 |
| ACCGACCT | -0.142 |
| CTCCACGC | -0.124 |
| CCCTAGTA | -0.212 |
| CATGGTGA | 0.193 |
| GCGTCCCC | -0.317 |
| AGGGTGGC | -0.189 |
